# Laboratory results taken from publication PMC4336329 (PLoS ONE, 2015).
# The whole screen tested about 310,000 compounds, of which about 14,000 (4.5%) showed an effect of 50% or more. The effect is printed as a negative number. This is one part of the list.
# Target: human ether-à-go-go-related gene (hERG) potassium channel (human, UniProt Q12809)
# Experiment: primary screen, population patch clamp on CHO cells stably expressing hERG
# 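Also: peak tail current of the secondary pulse compared with the same well before compound.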
# Sequence of human ether-à-go-go-related gene (hERG) potassium channel (Q12809 whole entry, looked up): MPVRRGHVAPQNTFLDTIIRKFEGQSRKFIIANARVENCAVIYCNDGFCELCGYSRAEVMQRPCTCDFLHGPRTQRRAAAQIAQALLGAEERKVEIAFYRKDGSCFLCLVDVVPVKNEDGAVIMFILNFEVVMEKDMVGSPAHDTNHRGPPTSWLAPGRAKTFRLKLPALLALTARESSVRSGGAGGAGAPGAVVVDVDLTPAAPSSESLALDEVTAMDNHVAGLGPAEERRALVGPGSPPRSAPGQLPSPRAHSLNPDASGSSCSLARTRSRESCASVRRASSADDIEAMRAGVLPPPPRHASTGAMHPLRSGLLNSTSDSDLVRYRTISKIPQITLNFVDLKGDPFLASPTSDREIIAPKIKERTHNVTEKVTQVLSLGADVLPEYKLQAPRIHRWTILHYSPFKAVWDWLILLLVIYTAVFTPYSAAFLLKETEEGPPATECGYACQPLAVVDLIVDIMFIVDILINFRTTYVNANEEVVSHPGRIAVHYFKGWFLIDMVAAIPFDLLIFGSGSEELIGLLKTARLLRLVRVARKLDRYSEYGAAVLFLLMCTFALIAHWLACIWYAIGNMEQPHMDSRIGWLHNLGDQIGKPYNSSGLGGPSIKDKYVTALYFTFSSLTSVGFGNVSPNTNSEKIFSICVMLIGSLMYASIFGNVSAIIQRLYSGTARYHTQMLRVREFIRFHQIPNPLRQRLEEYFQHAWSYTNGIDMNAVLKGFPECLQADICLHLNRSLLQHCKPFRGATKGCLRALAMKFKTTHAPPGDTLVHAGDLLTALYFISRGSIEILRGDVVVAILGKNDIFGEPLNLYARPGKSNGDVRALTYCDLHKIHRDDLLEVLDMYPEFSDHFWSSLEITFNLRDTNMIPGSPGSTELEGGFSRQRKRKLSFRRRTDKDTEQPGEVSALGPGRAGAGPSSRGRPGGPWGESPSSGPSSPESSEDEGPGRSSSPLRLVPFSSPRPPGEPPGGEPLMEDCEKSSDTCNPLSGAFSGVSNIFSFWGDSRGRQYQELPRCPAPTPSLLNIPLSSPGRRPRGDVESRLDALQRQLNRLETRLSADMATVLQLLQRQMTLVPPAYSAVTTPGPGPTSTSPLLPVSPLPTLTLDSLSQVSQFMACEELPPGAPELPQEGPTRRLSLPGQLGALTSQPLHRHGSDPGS
row,SMILES,"hERG current change (%, negative = inhibition) at 10uM"
1,COc1ccc(C(=O)N/N=C/c2ccc(OC(=O)c3cccs3)cc2)cc1,10.2%
2,O=C(COc1ccccc1)Nc1ccc([N+](=O)[O-])cc1,1.57%
3,CCOc1ccccc1NC(=O)COC(=O)COc1c(Cl)cc(Cl)c2ccc(C)nc12,21.7%
4,COC(=O)c1ccccc1NC(=O)CN1C(=O)c2ccccc2S1(=O)=O,2.35%
5,CCOc1ccc(CCNC(=O)CCc2nc(-c3ccc(OC)cc3)no2)cc1OCC,9.11%
6,O=C(C1CCCN1S(=O)(=O)c1cccc2nsnc12)N1CCCCCC1 (stereo not drawn),7.97%
7,CCN(CC)S(=O)(=O)c1ccc(C(=O)Nc2nnc(-c3ccco3)o2)cc1,9.76%
8,CCOC(=O)C1=C(COC(=O)CNC(=O)c2cc(OC)c(OC)c(OC)c2)NC(=O)NC1C (stereo not drawn),-5.35%
9,O=C(CSCc1cc(=O)n2ccsc2n1)Nc1ccccc1,5.23%
10,O=C(NNC(=O)C1CC(c2cccs2)=NO1)Nc1ccc(Cl)cc1 (stereo not drawn),17.4%
11,CCOC(=O)[C@H]1[C@H]2COc3ccc(Cl)cc3[C@@H]2N2C(=O)c3cc(F)c(F)cc3NC(=O)[C@@]12C,-1.29%
12,CC1(C)Oc2ccc(C(=O)N/N=C/c3ccc(O)cc3)cc2NC1=O,11%
13,N#Cc1cc2c(nc1SCC(=O)N1CCOCC1)CCCCC2,6.83%
14,CC(=O)Nc1ccc(NC(=O)CC(c2ccccc2)c2ccccc2)cc1,22.6%
15,Cc1c(C=O)c2ccccc2n1Cc1ccccc1,-2.16%
16,COc1cc(C(O)c2nc3ccccc3n2C(C)C)cc(OC)c1OC (stereo not drawn),7.53%
17,Cc1ccc(NC(=O)c2cnn(-c3ccccc3)c2C)c(C)c1,-0.951%
18,O=C(c1c[nH]c(C(=O)C(Cl)(Cl)Cl)c1)c1ccc(F)cc1Cl,13.4%
19,O=C(Nc1ccccc1)c1ccc(Br)c(S(=O)(=O)Nc2ccccn2)c1,14.5%
20,C=C1N(c2ccccc2)C(=O)OC1(C)C,3.85%
21,Cn1ncc(Cl)c1C(=O)N1CCN(S(=O)(=O)c2ccc(F)cc2)CC1,-14.8%
22,CCOC(=O)N(Cc1ccccc1)C(C(=O)O)C(C(=O)O)N(Cc1ccccc1)C(=O)OCC (stereo not drawn),13.3%

row,SMILES,"hERG current change (%, negative = inhibition) at 10uM"
1,CCOc1ccc(N2C(=O)c3ccccc3C2O)cc1 (stereo not drawn),-3.04%
2,O=C(NCCN1CCOCC1)C(=O)NCC1OCCN1S(=O)(=O)c1cc(F)ccc1F (stereo not drawn),14.1%
3,CC(C)(Oc1ccc(Cl)cc1)C(=O)NCCN1C(=O)S/C(=C/c2cccnc2)C1=O,-62.9%
4,Br.c1cc2c(cc1-c1csc(NNC3=NCCCCC3)n1)OCCO2,-5.63%
5,Cl.N=C1CCCN1c1ccccc1O,11.2%
6,O=C(Cc1cccc2ccccc12)NCCC1=CCCCC1,-1.41%
7,O=C(c1ccc2ccccc2n1)N1CCN(Cc2c(F)cccc2Cl)CC1,-4.81%
8,CC(O)c1cccc(NC(=O)CC(c2ccccc2)c2ccccc2)c1 (stereo not drawn),7.9%
9,Cc1cc(C)nc(N2CCN(C(=O)c3ccc(S(=O)(=O)N4CCCCCC4)cc3)CC2)n1,7.66%
10,O=C(CCn1c(=O)oc2ccccc21)Nc1ccccc1,13.8%
11,O=C(Nc1nccs1)C1CCN(S(=O)(=O)c2cnc[nH]2)CC1,11.8%
12,CC(C(=O)NC1C=CS(=O)(=O)C1)N1C(=O)/C(=C/c2cccc(Cl)c2)SC1=S (stereo not drawn),-2.47%
13,CC1CCN(c2nc3ccc(C(=O)N4CCN(Cc5ccc6c(c5)OCO6)CC4)cc3s2)CC1,-3.06%
14,COc1ccc(CCN(C)S(=O)(=O)c2cn(C)c(=O)n(C)c2=O)cc1OC,5.74%
15,Cc1ccccc1Nc1ncnc2c1cnn2-c1ccccc1,-5.11%
16,Cc1ccc(-c2cc(C(=O)OCC(=O)NC3CC3)c3ccccc3n2)cc1,-1.91%
17,C/C(=N\NC(=O)c1ccc(NS(=O)(=O)c2cccs2)cc1)c1ccccc1,22.3%
18,O=C(O)C(=O)O.c1ccc(OCCOCCN2CCN(C(c3ccccc3)c3ccccc3)CC2)cc1,-72.7%
19,COc1c(C(O)CC(C)C)ccc2c1C(=O)OCc1cc(C)cc(O)c1O2 (stereo not drawn),-4.77%
20,CCCOc1ccc(C(C)=O)cc1CC(C(=O)OCC)C(=O)OCC,1.47%
21,O=C(N/C(=C/c1ccc(Br)cc1)C(=O)N1CCCC1)c1cccs1,-24.4%
22,Cc1[nH]c2ccccc2c1CCN(Cc1cccnc1)C(=S)Nc1cccc(F)c1,11.4%

row,SMILES,"hERG current change (%, negative = inhibition) at 10uM"
1,CC(C)CSc1oc(-c2ccco2)nc1S(=O)(=O)c1ccccc1,-19.7%
2,CSCC[C@H](NC(=O)Nc1ccc(C)cc1C)C(=O)O,1.58%
3,CCOc1ccc2nc(SCC(=O)Nc3cc4c(cc3C(C)=O)OCO4)[nH]c2c1,-25.5%
4,Cn1cccc1C(=O)N1CCN(c2cccc(C(F)(F)F)c2)CC1,-1.08%
5,Nc1nc(SCC(=O)NCc2ccco2)[nH]c(=O)c1-c1ccccc1,22.3%
6,Cc1cc(Br)c(NC(=O)c2ccccc2[N+](=O)[O-])cc1C,16.7%
7,CC1=CC(C)(C)Nc2ccc(OC(=O)c3ccco3)cc21,-0.0756%
8,COc1ccccc1OCC(=O)Nc1ccc(CSc2ccccc2)cc1C,-1.28%
9,COc1ccc(CNc2ccc3c(c2)ncn3-c2ccccc2OC)cc1,-23%
10,Cc1ccc2c(c1)N(CC(=O)N1CCN(C3CCCCC3)CC1)C(=O)CO2,-18.5%
11,C=C(Br)CN1CCN(CC(=C)Br)CC1,3.96%
12,O=c1[nH]c(CSc2ccccn2)nc2ccccc12,-2.72%
13,O=C(CNC(=O)c1ccc(Br)cc1)c1ccccc1,19.1%
14,COc1ccc(C(=O)OCC(=O)N2CCOCC2)cc1S(=O)(=O)N1CCOCC1,10.1%
15,CC(Sc1nc2c(c(=O)[nH]1)CCCC2)C(=O)Nc1ccccc1C#N (stereo not drawn),17.1%
16,CCOC(=O)c1c(C)[nH]c(O)c1C=Nc1ccccc1,10.9%
17,O=C(Nc1ccc(N2CCN(C(=O)c3ccco3)CC2)cc1)c1ccccc1Br,12.4%
18,CCN1C(=O)N[C@@H](c2ccccc2)[C@H](C(=O)OC)[C@H]1C,-6.4%
19,Cc1ccccc1Nc1nc(N)nc(CN(C)Cc2ccccc2Cl)n1,-1.85%
20,NC(=O)c1ccccc1NC(=O)Nc1cccc(Cl)c1,-8.62%
21,Fc1cccc(NC(=S)NCc2ccccn2)c1,4%
22,O=c1c2ccccc2c(-c2ccccc2)nn1-c1cc(Cl)ccc1[N+](=O)[O-],-8.17%

row,SMILES,"hERG current change (%, negative = inhibition) at 10uM"
1,COc1ccc(-c2cc(C(=O)NC3CCCC3)no2)cc1,3.17%
2,CCn1nc(C)cc1C(=O)N1CCCC(N2CCN(Cc3ccc4c(c3)OCO4)CC2)C1 (stereo not drawn),7.03%
3,COc1ccc(S(=O)(=O)N2CCOCC2)cc1NC(=O)c1ccc2c(c1)OCO2,12.6%
4,O=C(Nc1ccc(C(F)(F)F)cc1)c1cccc(-n2cnnn2)c1,-11.4%
5,COc1cccc(OC)c1C(=O)Nc1ccccc1NC(=O)c1c(OC)cccc1OC,24.1%
6,COCCCNC(=O)c1c(NC(=O)c2cccs2)sc2c1CCCC2,2.08%
7,COc1c(/C=C2\SC(=Nc3ccccc3Cl)NC2=O)cccc1[N+](=O)[O-],12.1%
8,Cc1[nH]nc(Nc2ccc(C(C)C)cc2)c1[N+](=O)[O-],12.7%
9,Cc1cc(=O)oc2cc(OCC(=O)N3c4ccccc4CC3C)ccc12 (stereo not drawn),15.2%
10,Cc1ccc(Cn2c(C(C)Nc3nc(C)cs3)nc3cc(Cl)c(Cl)cc32)cc1 (stereo not drawn),16%
11,COc1ccc(C)cc1NC(=O)C1CC(=O)N(Cc2ccco2)C1 (stereo not drawn),-0.0428%
12,CC(Oc1ccc(Br)cc1)C(=O)Nc1cc(S(=O)(=O)N2CCOCC2)ccc1N1CCCC1 (stereo not drawn),-5.62%
13,CN1CCOCCOCCOCCN(C)C1=S,17.2%
14,CC(C)N(Cc1cc2ccccc2[nH]c1=O)C(=O)c1cccc([N+](=O)[O-])c1,-13.4%
15,CC(C)=C1SC(N2CCN(c3cccc(Cl)c3)CC2)=NC1=O,6.89%
16,CC(C)c1nc(-c2ccccn2)no1,-5.09%
17,CCOCCCNC(=O)C(c1ccc(C)cc1)N(Cc1cccs1)C(=O)c1ccccn1 (stereo not drawn),1.69%
18,O=C(c1ccc(F)cc1)N1CCN(c2ccc(N3CCOCC3)nn2)CC1,-12%
19,COc1cc(C)c(CN2CCC(Oc3ccc(C(=O)N4CCCC4)cc3)CC2)cc1C,-43.1%
20,CCOC(=O)c1c2c3c(cccc3n(C)c1=O)C(=O)c1ccccc1-2,-71.8%
21,CCCCOc1ccc(/C=N/NC(=S)Nc2cccc(C)c2C)cc1,-15.8%
